Data on one compound can be found in patent publication US11571410B2, “Use of carbamate compounds for prevention, alleviation or treatment of bipolar disorder” (SK BIOPHARMACEUTICALS CO., LTD., priority 2016, dated 2023).

One series deals with normal mice. Put plainly: Open field test in normal mice. The class given is in vivo, ICR mice. As to conditions: single oral dose, test compound 5, 10 and 20 mg/kg, valproic acid 300 mg/kg, open field test for 30 minutes after 1 hour.
Series [1] concerns bipolar mania-induced mice. Put plainly: Open field test in Amphetamine/Chlordiazepoxide-induced bipolar mania mouse model. As to conditions: mania-induced mice (Amphetamine 2.5 mg/kg + Chlordiazepoxide 2.5 mg/kg i.p. 30 minutes after oral dose); test compound 5, 10 and 20 mg/kg, valproic acid 300 mg/kg; open field test for 30 minutes; one-way ANOVA p<0.05.

Turning to `CCCC(CCC)C(=O)O` [valproic acid, reference compound], in the series on normal mice, the “behavior in open field test compared with the vehicle-administered negative control group” value was “did not significantly decrease”. The “behavior in open field test versus vehicle-treated negative control group (inhibition of increased behavior)” value in series [1] is reported as “confirmed the efficacy”.
